Data reported in the supplement of paper PMC12217912.
This is one part of the list. Sequences were assembled here from the parent chain. Values near 0.05 are background.

B1: TEV protease; numbered along this chain (parent)
chain: MGESLFKGPRDYNPISSSICHLTNESDGHTTSLYGIGFGPFIITNKHLFRRNNGTLVVQSLHGVFKVKDTTTLQQHLVDGRDMIIIRMPKDFPPFPQKLKFREPQREERICLVTTNFQTKSMSSMVSDTSCTFPSGDGIFWKHWIQTKDGQCGSPLVSTRDGFIVGIHSASNFTNTNNYFTSVPKNFMELLTNQEAQQWVSGWRLNADSVLWGGHKVFMVKPEEPFQPVKEATQL

Variants of: B1
Assay: raw area under fraction-flipped curve 0-4 h after induction (AUC4h, not background-subtracted), DNA-recorder readout of cleavage of the substrate (dimensionless); higher = more cleavage of the substrate by the protease variant
Settings: temperature: 34 °C; time window: 0-4 h after rhamnose induction
Method: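 In vivo DNA recorder in E. coli TOP10(DE3) ΔrhaA at 34 °C. Each TEVp single-site mutant (parent TEVp 0) is paired with a single-site variant of the 7-mer TEVs (canonical ENLYFQ|S). The substrate sits between flexible linkers in a Bxb1-sfGFP-TEVs-SsrA fusion, so cleavage stabilises Bxb1 and speeds flipping of a recombination array, read by NGS. The value is the raw area under the fraction-flipped curve over 0-4 h after rhamnose induction (AUC4h), with ≥20 reads per time point. It is not background-subtracted; inactive controls average about 0.047.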
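Note: Bxb1 expression induced with 0.2% (w/v) L-rhamnose at OD600 near 0.5, cultures sampled hourly, flipped fraction per protease–substrate barcode pair counted by paired-end Illumina sequencing.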

Row | Variant | area with substrate ENLYFAS | area with substrate ENLYFCS | area with substrate ENLYFFS | area with substrate ENLYFHS | area with substrate ENLYFIS | area with substrate ENLYFKS | area with substrate ENLYFLS | area with substrate ENLYFMS | area with substrate ENLYFNS | area with substrate ENLYFPS | area with substrate ENLYFRS | area with substrate ENLYFTS | area with substrate ENLYFWS | area with substrate ENLYFYS | area with substrate ENLYFDS | area with substrate ENLYFES | area with substrate ENLYFVS | area with substrate ENLYFSS | area with substrate ENLYFGS
1 | I36A | 0.055 | 0.0246 | 0.0624 | 0.0397 | 0.0491 | 0.0513 | 0.0606 | 0.0509 | 0.0463 | 0.0512 | 0.056 | 0.0478 | 0.0559 | 0.0614 | – | – | – | – | –
2 | I36E | 0.0589 | 0.0402 | 0.0523 | – | 0.0517 | 0.0497 | – | 0.0437 | 0.0464 | 0.045 | 0.0516 | 0.0328 | 0.0452 | 0.0339 | 0.0386 | 0.0457 | 0.0194 | – | –
3 | I36V | 0.0583 | 0.0546 | 0.0637 | 0.0512 | 0.044 | 0.057 | – | 0.0663 | 0.0595 | 0.0634 | – | 0.0743 | – | 0.0552 | – | 0.0528 | 0.0525 | 0.0714 | –
4 | T44W | 0.0397 | 0.052 | 0.0688 | 0.0478 | 0.0367 | 0.0525 | – | 0.0489 | 0.0633 | 0.0482 | 0.0431 | 0.051 | 0.0386 | – | 0.0444 | 0.0594 | 0.0497 | 0.0502 | –
5 | T44D | 0.0508 | 0.0597 | 0.0466 | 0.03 | 0.0359 | – | – | 0.046 | 0.05 | 0.0441 | – | 0.0437 | – | 0.0482 | 0.0383 | – | 0.0297 | – | 0.0496
6 | G37P | 0.0512 | – | 0.0188 | – | 0.0434 | 0.0387 | – | 0.0429 | – | 0.0446 | – | – | 0.0452 | – | – | 0.0523 | – | 0.0489 | 0.03
7 | G63Q | 0.0601 | 0.0628 | 0.062 | 0.0644 | 0.0476 | 0.0521 | – | 0.0507 | 0.071 | 0.0679 | – | 0.0221 | – | 0.0504 | 0.0556 | 0.0672 | – | 0.0525 | –
8 | G39Q | 0.0443 | 0.0374 | 0.0341 | 0.0534 | 0.0397 | – | 0.0519 | 0.0292 | 0.0445 | 0.0439 | – | – | 0.0482 | 0.0348 | – | 0.0513 | 0.0371 | – | 0.0499
9 | G39W | 0.0419 | 0.0423 | 0.0522 | 0.0399 | 0.0433 | – | 0.0419 | 0.0563 | 0.0484 | 0.0452 | 0.065 | 0.0457 | – | 0.0494 | 0.0474 | 0.0467 | 0.0461 | 0.052 | 0.0396
10 | T55G | 0.0496 | – | 0.0642 | – | 0.055 | 0.0566 | – | 0.0539 | 0.0508 | 0.0532 | – | – | – | 0.0633 | – | 0.0568 | 0.0601 | 0.065 | –
11 | H62D | 0.0435 | 0.0363 | 0.0571 | 0.067 | 0.0594 | 0.0726 | 0.0601 | 0.0645 | 0.0664 | 0.0492 | 0.0626 | 0.0541 | 0.0695 | 0.0576 | 0.0634 | 0.0681 | 0.0559 | 0.0576 | 0.0492
12 | H62V | 0.0337 | 0.064 | – | – | 0.0479 | 0.0582 | 0.0538 | 0.0702 | 0.0568 | 0.0593 | 0.0375 | 0.0489 | 0.0506 | – | – | 0.0731 | 0.073 | – | 0.056
13 | H62F | 0.0534 | 0.0712 | 0.0618 | 0.0525 | 0.0559 | – | – | 0.0801 | 0.0691 | 0.0614 | – | 0.0646 | 0.0633 | 0.0537 | – | 0.0629 | – | 0.0642 | –
14 | L56V | 0.0636 | – | 0.0663 | 0.0579 | 0.0579 | 0.0503 | – | 0.0632 | 0.0575 | 0.0589 | – | 0.0597 | 0.0637 | – | 0.0572 | 0.0527 | 0.0525 | 0.0829 | 0.0725
15 | L56D | 0.0447 | 0.0311 | 0.048 | 0.0558 | 0.0427 | 0.0498 | 0.0404 | 0.0395 | 0.0346 | 0.0398 | 0.0441 | 0.0417 | 0.0416 | 0.0409 | 0.0353 | 0.0568 | 0.0451 | 0.0471 | –
16 | K66P | 0.0653 | 0.0456 | – | 0.0043 | 0.0495 | 0.064 | 0.0531 | 0.0522 | 0.0317 | 0.0927 | 0.0923 | 0.0469 | 0.0388 | 0.0575 | – | 0.055 | 0.0202 | 0.0534 | 0.0546
17 | F49G | 0.0449 | 0.041 | 0.0533 | 0.0536 | 0.0564 | 0.0568 | – | 0.0535 | – | 0.0634 | 0.0515 | 0.0437 | 0.0599 | 0.0414 | 0.0635 | 0.0605 | – | 0.0681 | 0.0578
18 | F49R | 0.045 | – | 0.0717 | 0.0501 | 0.0536 | 0.0515 | 0.0574 | 0.0626 | 0.0555 | 0.0558 | 0.0493 | 0.0513 | 0.0371 | 0.0303 | – | – | – | 0.0635 | 0.0527
19 | F49P | 0.0506 | 0.0465 | 0.0646 | 0.0662 | 0.0532 | 0.0482 | 0.0634 | 0.0572 | 0.0508 | – | 0.0474 | 0.0565 | 0.0593 | – | 0.0509 | 0.0599 | 0.0645 | 0.0597 | 0.0639
20 | H29E | 0.0565 | – | 0.0647 | – | 0.0559 | – | – | 0.0679 | – | 0.0605 | 0.06 | 0.0602 | 0.06 | – | – | 0.0702 | 0.0452 | 0.0571 | –
21 | H29L | 0.058 | 0.0507 | 0.07 | 0.0652 | 0.0624 | 0.0676 | 0.0643 | 0.0752 | 0.0715 | 0.0505 | – | 0.0571 | 0.0716 | 0.0553 | – | 0.078 | 0.0679 | 0.0584 | –
22 | H29R | 0.0452 | – | 0.0716 | 0.0608 | 0.0657 | 0.0457 | – | 0.059 | 0.0668 | 0.0681 | 0.0652 | 0.063 | 0.0396 | – | – | – | – | 0.0631 | –
23 | N45V | 0.0506 | 0.0675 | 0.0633 | 0.0674 | 0.0561 | 0.0635 | 0.0589 | 0.0455 | 0.0627 | 0.0657 | 0.0598 | 0.0673 | 0.0652 | 0.0659 | – | 0.0511 | 0.0694 | 0.0511 | 0.0621
24 | N45I | 0.0469 | – | – | – | 0.0597 | 0.0827 | 0.0652 | 0.0568 | 0.0596 | 0.0509 | 0.0397 | 0.0647 | – | 0.0614 | – | 0.0519 | 0.0587 | – | –
